{"source": "PubChem BioAssay AID624296", "about": "(National Center for Advancing Translational Sciences (NCATS), 2012)", "note": "Hit rate of the full screen: of about 350,000 compounds, about 9,900 (2.8%) were called active. Inconclusive results, whose numbers are uncertain, are shown with a selection of clear calls. The call rests on the fitted dose curve; in most records, active means well fitted activation curve with a large enough effect; inconclusive means small, poorly fitted or top-dose-only effect; inactive means no such curve, though single readings can be large or run the other way. No potency is given beside an inconclusive call; the fits are too rough. Potency means the concentration at half of the fitted maximal effect; tags describe the fitted curve by direction and shape."}
{"assay": "A quantitative high throughput screen for small molecules that induce DNA re-replication in MCF 10a normal breast cells; further: nearly all actives have a fitted effect of over 50% in size; on activity, positive = re-replication: % of control where 0% means no effect.", "details": "MCF 10A DNA re-replication, Hoechst nuclear intensity, 48 h; activity, positive = re-replication: at 46.1 µM (top of the series)"}
{"compound": "O=C(CSc1nc(-c2ccccc2)c(-c2ccccc2)[nH]1)NCCN1C(=O)CSC1=O", "Potency": "inconclusive [activator, partial curve, poor fit]"}
{"compound": "On1nnc2ccccc21", "activity, positive = re-replication": "inactive: -0.242%"}
{"compound": "CCCCc1cc(=O)oc2cc(OCC(=O)N3CCOCC3)ccc12", "activity, positive = re-replication": "inactive: -9.47%"}
{"compound": "Clc1ccccc1Cn1c(/C=C/c2ccco2)nc2ccccc21", "Potency": "active: 18.4 µM"}
{"compound": "CC1CCN(CC(=O)Nc2nn(-c3ccccc3)nc2C(N)=O)CC1", "activity, positive = re-replication": "inactive: 13.5%"}
{"compound": "CCN(CC1CCCN(CCc2cccc(OC)c2)C1)C(=O)c1ccoc1C", "note": "(stereo not drawn)", "Potency": "inconclusive [activator, single point]"}
{"compound": "CC(C)(C)OC(=O)N1CCC[C@H]1c1nnc(SCc2ccc(Cl)cc2Cl)o1", "Potency": "inconclusive [activator, single point]"}
{"compound": "C=CCc1cccc(/C=N/NC(=O)CNc2cccc3ccccc23)c1O", "Potency": "inconclusive [activator, single point]"}
{"compound": "Cn1c(-c2cccc3ccccc23)n[nH]c1=S", "activity, positive = re-replication": "inactive: -2.74%"}
{"compound": "Cc1cc(C)cc(NC(=O)CSc2nc3[nH]ncc3c(=O)[nH]2)c1", "Potency": "inconclusive [activator, single point]"}
{"compound": "COc1cc(/C=C/C(=O)OCC(=O)NC(=O)NC(C)C)ccc1OCC#N", "Potency": "inconclusive [activator, partial curve, poor fit]"}
{"compound": "CCN(CC)CCOc1ccc(Cc2ccccc2)cc1", "Potency": "active: 23.7 µM"}
{"compound": "N#CCC(=O)Nc1ccc(C(=O)OCC(=O)N(C2CCCCC2)C2CCCCC2)cc1", "Potency": "inconclusive [activator, single point]"}
{"compound": "CCOc1ccc2nc(N3CCOCC3)nc(C)c2c1", "Potency": "inconclusive [activator, partial curve, poor fit]"}
{"compound": "Cc1ccc(-c2nnc(Nc3ccccc3)c3ccccc23)cc1S(=O)(=O)NCC1CCCO1", "note": "(stereo not drawn)", "Potency": "inconclusive [activator, single point]"}
{"compound": "CCCC(=O)Nc1ccc(C(=O)N/N=C/c2ccc([N+](=O)[O-])o2)cc1", "Potency": "active: 3.26 µM"}
{"compound": "CC(C)N(Cc1ccccc1)C(=O)COC(=O)c1ccccc1SCC(=O)N1CCCC1", "Potency": "inconclusive [activator, full curve, poor fit]"}
{"compound": "C/C(=N\\NC(=O)c1cc(Cl)ccc1O)c1ccc(Br)s1", "Potency": "inconclusive [activator, full curve, poor fit]"}
{"compound": "CC(NC(=O)OC(C)(C)C)C(=O)Oc1cc2oc(=O)cc(-c3ccccc3)c2cc1Cl", "note": "(stereo not drawn)", "Potency": "inconclusive [activator, single point]"}
{"compound": "CCCN(Cc1cc2cc(C)ccc2[nH]c1=O)C(=O)c1cccc(OC)c1", "activity, positive = re-replication": "inactive: 14.4%"}
{"compound": "O=C(/C(=C/c1ccc(Cl)cc1)c1nc2ccccc2[nH]1)c1cccs1", "Potency": "active: 5.17 µM"}
{"compound": "CCN(CC)S(=O)(=O)c1ccc(N2CCOCC2)c(NC(=S)NC(=O)c2ccco2)c1", "Potency": "inconclusive [activator, full curve, poor fit]"}
{"compound": "O=c1nc(SCc2c(F)cccc2Cl)nc(-c2ccc(Cl)cc2)[nH]1", "Potency": "inconclusive [activator, single point]"}
{"compound": "Cc1cc(C)n2[nH]c(=O)c(N=Nc3ccc(S(N)(=O)=O)cc3)c2n1", "activity, positive = re-replication": "inactive: 2.82%"}
{"compound": "CCN(CC)S(=O)(=O)c1ccc(NC(=O)C2CC(=O)N(c3ccc4c(c3)OCCO4)C2)cc1", "note": "(stereo not drawn)", "activity, positive = re-replication": "inactive: 3.33%"}
{"compound": "CCC(c1nnc(SCC(=O)Nc2ccc(NC(C)=O)cc2)n1Cc1ccccc1)N(C)C", "note": "(stereo not drawn)", "activity, positive = re-replication": "inactive: 1.15%"}
{"compound": "O=C(CSc1nc2ccccc2o1)NCc1ccc2c(c1)OCO2", "activity, positive = re-replication": "inactive: -5.62%"}
{"compound": "Cc1ccccc1NC(=O)Cn1c(=O)n(Cc2ccccc2)c(=O)c2c(C)c(C)sc21", "Potency": "inconclusive [activator, partial curve, poor fit]"}
{"compound": "O=C(N/N=C/c1ccccc1F)c1ccccc1OCc1ccccc1", "Potency": "inconclusive [activator, single point]"}
{"compound": "CCC(C)Cn1c(C)nc2ccccc21", "note": "(stereo not drawn)", "activity, positive = re-replication": "inactive: -5.06%"}
{"compound": "COc1ccc(-c2csc(NC(=O)c3ccc(OCC(=O)N4CCOCC4)c(OC)c3)n2)cc1OC", "Potency": "inconclusive [activator, partial curve]"}
{"compound": "CCOC(=O)c1c(NC(=O)C2C3CCC(O3)C2C(=O)O)sc2c1CCC(CC)C2", "note": "(stereo not drawn)", "Potency": "inconclusive [activator, full curve, poor fit]"}
{"compound": "O=C(Nc1ccc2c(c1)CCC2)c1cc(F)cc(F)c1", "activity, positive = re-replication": "inactive: 6.59%"}
{"compound": "CCn1c(COc2ccccc2C)nnc1SCC(=O)CC(=O)Nc1ccccc1OC", "Potency": "inconclusive [activator, single point]"}
{"compound": "FC(F)(F)c1ccc(-c2nnc(-c3ccccn3)c(-c3ccccn3)n2)nc1", "activity, positive = re-replication": "inactive: -4.29%"}
{"compound": "O=C(CCCCCNc1nc(=S)[nH]c2ccccc12)NCCc1ccc(Cl)cc1", "Potency": "inconclusive [activator, single point]"}
{"compound": "Cc1cc(C)c(C(N)=O)c(SCC(=O)c2ccc(Cl)cc2)n1", "Potency": "inconclusive [activator, single point]"}
{"compound": "Cc1ccc(S(=O)(=O)N2CCCC2CNC(=O)C(=O)NCc2cccs2)cc1", "note": "(stereo not drawn)", "activity, positive = re-replication": "inactive: 17.7%"}
{"compound": "CCS(=O)(=O)N1Cc2ccccc2CC1C(=O)Nc1nnc(SCc2ccc(F)cc2)s1", "note": "(stereo not drawn)", "Potency": "inconclusive [activator, partial curve]"}
{"compound": "O=C(CSc1nc(O)c(Cc2ccccc2)c(=O)[nH]1)Nc1nnc(SCc2ccccc2)s1", "activity, positive = re-replication": "inactive: 0.748%"}
{"compound": "O=C(CSc1nnc(COc2ccc(Cl)cc2)o1)N1c2ccccc2CCc2ccccc21", "Potency": "inconclusive [activator, full curve, poor fit]"}
{"compound": "COc1ccc(NC(=O)CN2CCN(S(=O)(=O)c3ccc(Cl)cc3)CC2)cc1", "activity, positive = re-replication": "inactive: 7.86%"}
{"compound": "COc1cc(CNC2CCCCCCC2)cc(Br)c1OCC#N", "Potency": "inconclusive [activator, partial curve, poor fit]"}
{"compound": "COc1cc(NC(=O)C2CCCCC2)c(OC)cc1NC(=O)c1ccco1", "Potency": "inconclusive [activator, partial curve, poor fit]"}
{"compound": "NC(=O)C1(N2CCCCC2)CCN(Cc2ccccc2Cl)CC1", "Potency": "active: 16.4 µM"}
{"compound": "O=C(O)C(=O)/C(=C\\c1cccc(Cl)c1)c1ccc2ccccc2n1", "Potency": "inconclusive [activator, single point]"}
{"compound": "CCOC(=O)c1c(N)sc(C(=O)N2CCCC2)c1C", "Potency": "inconclusive [activator, full curve, poor fit]"}
{"compound": "CCOC(=O)/C(C#N)=C/c1cc2ccccc2nc1N1CCCCC1", "activity, positive = re-replication": "inactive: 18.3%"}
{"compound": "CCN1C(=O)N[C@@H](CCc2ccccc2)[C@@H](C(=O)OC)[C@H]1C", "Potency": "inconclusive [activator, single point]"}
{"compound": "CCc1ccccc1Nc1nc(N)nc(COC(=O)c2cccn2C)n1", "Potency": "inconclusive [activator, partial curve, poor fit]"}
{"compound": "CCN(CC)S(=O)(=O)c1ccc(NC(=O)CNC2CCCCC2)cc1", "Potency": "inconclusive [activator, single point]"}
{"compound": "CCN(CC)CCCNc1cc(C(F)(F)F)c(C#N)c2nc3ccccc3n12", "Potency": "inconclusive [activator, partial curve]"}
{"compound": "O=C1NC(Cc2ccccc2)C(=O)Nc2ccc(Br)cc21", "note": "(stereo not drawn)", "activity, positive = re-replication": "inactive: 1.44%"}
{"compound": "COc1ccccc1-c1sc2cc3c(cc2c1C#CC1(O)CCCCC1)OCO3", "Potency": "inconclusive [activator, single point]"}
{"compound": "CCOC(=O)C1=C(O)/C(=C/c2cn(CC(=O)NCC3CCCO3)c3ccccc23)SC1=Nc1ccc(C)cc1", "note": "(stereo not drawn)", "Potency": "inconclusive [activator, partial curve]"}
{"compound": "CC(C)Oc1ccc(S(=O)(=O)N2CCOCC2)cc1NC(=O)Cc1ccsc1", "Potency": "inconclusive [activator, partial curve]"}
{"compound": "CCc1c(O)nc(SCC(=O)Nc2ccc(C)cc2)n(C2CCCCC2)c1=O", "Potency": "inconclusive [activator, single point]"}
{"compound": "COc1ccccc1NC(=S)NC(=O)c1ccc(Cn2cc(Br)cn2)cc1", "Potency": "inconclusive [activator, single point]"}
{"compound": "CCOc1ccc(N(CC(=O)NC2CCCCC2)C(=O)CCCC(=O)Nc2ccccn2)cc1", "Potency": "inconclusive [activator, partial curve, poor fit]"}
{"compound": "COc1ccc(N(CC2CO2)S(=O)(=O)c2ccccc2)cc1", "note": "(stereo not drawn)", "Potency": "inconclusive [activator, partial curve, poor fit]"}
{"compound": "Cc1sc(NC(=O)CN(Cc2ccc(F)cc2)C(=O)C(C)C)c(C(N)=O)c1C", "Potency": "inconclusive [activator, single point]"}
{"compound": "CC(=O)c1c(C(C)=O)c(C)n(-c2nc(-c3ccc(Br)cc3)c(C)s2)c1C", "activity, positive = re-replication": "inactive: 15.6%"}
{"compound": "O=C(CNC1CCCCC1)Nc1cccc([N+](=O)[O-])c1", "activity, positive = re-replication": "inactive: 3.73%"}
{"compound": "Cc1cc(OC(=O)c2ccccc2F)c([N+](=O)[O-])c(=O)[nH]1", "Potency": "inconclusive [activator, single point]"}
{"compound": "O=C(CSc1nc(Nc2ccccc2)nc(N2CCOCC2)n1)Nc1ccc(Br)cc1F", "Potency": "active: 14.6 µM"}
{"compound": "COCCN(C(=O)CSc1nnc(-c2cccc(F)c2)n1N)c1c(N)n(CC(C)C)c(=O)[nH]c1=O", "Potency": "inconclusive [activator, single point]"}
{"compound": "CCOc1ccccc1/C=N\\Nc1cnn(Cc2ccccc2)c(=O)c1Cl", "Potency": "inconclusive [activator, partial curve]"}
{"compound": "N=c1c2c(n(Cc3ccc(Cl)c(Cl)c3)c3c1CCC3)CCCC2", "Potency": "inconclusive [activator, full curve, poor fit]"}
